Laboratory results: PubChem BioAssay AID1347120 (National Center for Advancing Translational Sciences (NCATS), 2019)
About 930 (0.24%) of roughly 390,000 compounds were called active. Inconclusive results, whose numbers are uncertain, are shown with a selection of clear calls. The call rests on the fitted dose curve; in most records, active means well fitted activation curve with a large enough effect; inconclusive means small, poorly fitted or top-dose-only effect; inactive means no such curve, though single readings can be large or run the other way. A potency beside an inconclusive call is a rough fit, not a confirmed value. Numbered stars: 1 amine (or outer) side, 2 acyl side, 3 side chain; on linkers, the order of the positions; unused ones are H or OH. Bridge positions count the residues as written; N and C are the ends. Square brackets hold non-standard residues; d marks the D form. Peptide text beside a SMILES is read from it. ξ: configuration not given here. X12 = CC[C@H](CCC[C@@H](O)[C@@H](C)C(=O)O[C@H](C)[C@@H](C)C/C=C(C)/C(=C\C(=O)[*:1])OC)O[*:2]; NMeξIle = CC[C@H](C)C(NC)C(=O)O; NMeV = CN[C@H](C(=O)O)C(C)C; NMeS = CN[C@@H](CO)C(=O)O

assay: qHTS for Suppressors of FUS Proteinopathy: Primary screen using FUS-linked yeast assay; further: nearly all actives have a fitted effect of over 55% in size;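 on growth rescue (activation): plate controls were DMSO vehicle for no effect and reference control for full effect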; conditions: S. cerevisiae FUS-expressing, OD600, 24 h; Potency: growth rescue; growth rescue (activation): at 76.6 µM (top of the series)
Procedure, shortened: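 Steps: raffinose overnight preculture; dilution to OD 0.005 in 2% galactose minimal medium; compound addition (concentration series); 24hr at 30C, 99% humidity; absorbance read at 600 nm.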
Potency means the concentration at half of the fitted maximal effect; tags describe the fitted curve by direction and shape.

Row | Compound | Potency | growth rescue (activation)
1 | Cc1ccc(S(=O)(=O)c2c(Nc3ccccc3)sc(C(=O)c3ccc4c(c3)OCO4)c2N)cc1 | inconclusive: 22.4 µM [activator, partial curve, poor fit] | 
2 | O=c1ccn([C@@H]2O[C@H](CNS(=O)(=O)C3CC3)[C@@H](O)[C@H]2O)c(=O)[nH]1 |  | inactive: -35.4%
3 | COc1cccc(-n2cc(C(=O)Oc3ccc(F)cc3)c3ccccc3c2=O)c1 | inconclusive: 28.2 µM [activator, single point] | 
4 | COc1cccc2cc3c(nc12)C[C@@H]1CCCC(=O)N2CCC[C@@]12C3 |  | inactive: 2.47%
5 | O=C(COC(=O)/C=C/c1cccs1)Nc1cccc(S(=O)(=O)N2CCCC2)c1 | inconclusive: 50.1 µM [activator, single point] | 
6 | Cc1ccccc1C(=O)N1CCc2c([nH]c3ccccc23)C1C(F)(F)F (centres undefined) |  | inactive: 21.8%
7 | C[C@@]12C(=O)Nc3ccc(Cl)cc3C(=O)N1[C@H]1c3cc(Br)ccc3OC[C@@H]1[C@@H]2c1ccccc1 | active: 28.2 µM | 
8 | COc1ccc(S(=O)(=O)N2CCC(c3nnc(-c4ccccc4C)o3)CC2)c(OC)c1 | active: 31.6 µM | 
9 | COc1ccc(N2CC(C(=O)N3CCN(C(=O)c4ccco4)CC3)CC2=O)cc1 (centres undefined) |  | inactive: 32.6%
10 | CCOc1ccc(-n2c(SCc3nc(-c4cccs4)no3)nnc2-c2ccncc2)cc1 | inconclusive: 28.2 µM [activator, single point] | 
11 | Cc1cc(F)ccc1S(=O)(=O)Nc1ccccc1C(=O)N1CCCC1 |  | inactive: -8.11%
12 | CC(C)(C)c1ccc(S(=O)(=O)c2cnc(SCC(=O)Nc3ccc(F)c(Cl)c3)[nH]c2=O)cc1 |  | inactive: 7.19%
13 | COc1ccc(-c2nnc(SCC(=O)NCc3ccccc3)nc2-c2ccc(OC)c(OC)c2)cc1OC | inconclusive: 31.6 µM [activator, single point] | 
14 | C[C@H](CO)N1C[C@H](C)[C@@H](CN(C)S(=O)(=O)c2ccccc2)Oc2ccc(NS(=O)(=O)c3ccccc3)cc2C1=O |  | inactive: 35.3%
15 | Cc1ccc(NS(=O)(=O)c2cc(C(=O)NCCSc3ccc(C)cc3)ccc2C)cc1 |  | inactive: 15%
16 | COC(=O)c1ccc([C@H]2Nc3ccc(S(=O)(=O)Nc4ccc(C)cc4)cc3[C@H]3C=CC[C@H]32)cc1 | inconclusive: 28.2 µM [activator, partial curve, poor fit] | 
17 | COc1cccc(CNC(=O)c2ccc3c(c2)N(Cc2ccc(C(F)(F)F)cc2)C(=O)c2ccccc2S3)c1OC | inconclusive: 25.1 µM [activator, partial curve, poor fit] | 
18 | CCN1c2ccccc2N(C)C1(C)c1ccccc1 (centres undefined) | inconclusive: 22.4 µM [activator, partial curve, poor fit] | 
19 | CCOC(=O)N1CCC(N2C(=O)c3ccccc3C2Nc2ccc3c(C)cc(=O)oc3c2)CC1 (centres undefined) | inconclusive: 31.6 µM [activator, single point] | 
20 | Cc1nn(-c2ccccc2)c2c1N(CCCC(=O)NCc1ccc(Cl)cc1)C(=O)CS2 | inconclusive: 25.1 µM [activator, single point] | 

Row | Compound | Potency | growth rescue (activation)
21 | CCS(=O)(=O)c1nc2ccccc2n1CC(=O)Nc1ccccc1C(=O)OC |  | inactive: 0.288%
22 | CN(C)C=NC(=O)c1cc(C(=O)c2ccc(Cl)cc2)c[nH]1 | inconclusive: 7.94 µM [activator, partial curve, poor fit] | 
23 | COc1ccc(CN(C(=O)CSc2nnc(-c3c[nH]c4ccccc34)o2)c2ccc(F)cc2)cc1OC | inconclusive: 15.8 µM [activator, partial curve, poor fit] | 
24 | CCC1C/C(=C\c2cc(OC)c(OC)cc2OC)C(=O)/C(=C/c2cc(OC)c(OC)cc2OC)C1 (centres undefined) | inconclusive: 28.2 µM [activator, single point] | 
25 | COc1cc(-c2noc(-c3ccc(N4CCOCC4)c([N+](=O)[O-])c3)n2)cc(OC)c1OC |  | inactive: 11.5%
26 | COCCN(C(=O)COC(=O)c1ccccc1Nc1ccccc1)c1c(N)n(Cc2ccccc2)c(=O)[nH]c1=O | inconclusive: 14.1 µM [activator, partial curve, poor fit] | 
27 | Cn1c(SCC(=O)N/N=C/c2ccc([N+](=O)[O-])s2)nnc1-c1ccccc1 |  | inactive: 22.1%
28 | C=CC[C@H](CC(=O)OC(C)(C)C)C(=O)OC[C@H]1CCCN1C(=O)[C@@H](CC=C)CC(=O)N(CCO)Cc1ccccc1 | inconclusive: 17.8 µM [activator, partial curve, poor fit] | 
29 | CN(C(=O)c1cccc(NC(=O)Cc2ccc(NC(=O)C3CCN(C(=O)c4ccccc4)CC3)cc2)c1)C1CCCCC1 | inconclusive: 50.1 µM [activator, single point] | 
30 | CCN(CCCNC(=O)CSc1cc(=O)n(C)c2cc(Cl)ccc12)c1cccc(C)c1 | inconclusive: 31.6 µM [activator, partial curve, poor fit] | 
31 | COc1cccc(C(=O)C(=O)N2CCN(C(=O)OCc3ccccc3)CC2)c1 | inconclusive: 15.8 µM [activator, partial curve, poor fit] | 
32 | O=C1NC[C@H](c2ccccc2)OC(=O)[C@@H](Cc2ccc(F)cc2)CC/C=C/C[C@H]1CC(=O)N(CCO)Cc1ccccc1 | inconclusive: 31.6 µM [activator, single point] | 
33 | CSc1ccccc1NC(=O)CNCCCN1CCOCC1 |  | inactive: 22.8%
34 | COc1ccc(NC(=O)c2cc(C3CCCCN3S(=O)(=O)c3cccs3)on2)c(C)c1 (centres undefined) | inconclusive: 28.2 µM [activator, single point] | 
35 | OC(c1ccccc1)c1nc(-c2cccc(F)c2)cs1 (centres undefined) |  | inactive: 17.6%
36 | O=C(c1cccs1)N1C[C@H](n2cc(-c3ccc(F)cc3)nn2)[C@@H](O)C[C@@H]1c1ccc(Cl)cc1 | inconclusive: 25.1 µM [activator, single point] | 
37 | O=C(COc1cc2oc(=O)cc(-c3ccccc3)c2cc1Cl)NC(Cc1c[nH]c2ccc(O)cc12)C(=O)O (centres undefined) | inconclusive: 35.5 µM [activator, partial curve, poor fit] | 
38 | COc1ccc(N(CC(=O)N/N=C/c2ccc3c(c2)OCO3)S(=O)(=O)c2ccc(NC(C)=O)cc2)cc1 | inconclusive: 50.1 µM [activator, single point] | 
39 | COC(=O)c1ccc(NC2=C(Cl)C(=O)OC2OC(=O)c2ccccc2)cc1 (centres undefined) |  | inactive: -0.435%
40 | COCOCCn1cc(CN2CCS(=O)(=O)N(Cc3ccc(-c4ccc(OC)nc4)cc3)C(C(C)C)C2=O)nn1 (centres undefined) | inconclusive: 14.1 µM [activator, partial curve, poor fit] | 

Row | Compound | Potency | growth rescue (activation)
41 | COc1ccc2cc3cc(C(=O)NCCc4ccccc4)sc3nc2c1Cl |  | inactive: -4.66%
42 | CC[C@@H]1CCC[C@@H](O)[C@@H](C)C(=O)O[C@H](C)[C@@H](C)C/C=C(C)/C(OC)=C\C(=O)N(C)C([C@@H](C)CC)C(=O)N(C)[C@@H](C(C)C)C(=O)N(C)[C@@H](COC)C(=O)N2CCC[C@H]2C(=O)N(C)[C@@H](C(C)C)C(=O)N2CCC[C@H]2C(=O)O1 (some centres undefined) ([NMeξIle][NMeV][NMeS](Me)P[NMeV]P; linker N-C via X12) | inconclusive: 3.98 µM [activator, full curve, poor fit] | 
43 | Cc1cccc(-n2ncc(C(=O)NCc3ccco3)c2C2CCN(C(=O)OC(C)(C)C)CC2)c1 | inconclusive: 35.5 µM [activator, single point] | 
44 | COc1ccccc1CNC(=O)COc1ccc(C)cc1 |  | inactive: -2.92%
45 | Cc1ccc2c(c1)cc(C)c1nnc(SCC(=O)NCc3ccco3)n12 | inconclusive: 7.94 µM [activator, partial curve] | 
46 | CCOC(=O)c1sc(=S)n(-c2cc(OC)ccc2OC)c1N |  | inactive: -27.2%
47 | COc1ccccc1C(=O)n1nc(-c2ccccc2)nc1NCc1ccco1 |  | inactive: 2.98%
48 | O=[N+]([O-])c1ccc(Cn2ccc3ccc(-c4ccc5ccn(Cc6ccccc6)c5c4)cc32)cc1 | inconclusive: 20 µM [activator, partial curve, poor fit] | 
49 | CC(=O)c1ccc(N2CCN(C(=O)CCC(=O)c3cccs3)CC2)cc1 |  | inactive: -2.07%
50 | CC[C@]12c3[nH]c4ccc(Cl)cc4c3CCN1C(=O)[C@@H](CC(=O)NCC13CC4CC(CC(C4)C1)C3)C[C@@H]2C(=O)N1CCN(C(=O)C2CC2)CC1 | inconclusive: 20 µM [activator, partial curve, poor fit] | 
51 | NC(=O)c1ccc(-c2ccc(N3C(c4ccsc4)=Cc4ccc(F)cc4C3CC(=O)c3ccco3)cc2)cc1 (centres undefined) | inconclusive: 35.5 µM [activator, single point] | 
52 | CCn1c(Oc2ccc(F)cc2)nc2c1c(=O)n(C)c(=O)n2C |  | inactive: -5.8%
53 | CCCCCCC(=O)N1CCC(c2nc3c(nnn3Cc3ccccc3Cl)c(=O)[nH]2)CC1 | inconclusive: 56.2 µM [activator, partial curve, poor fit] | 
54 | COc1ccc(C(C)=O)c(Oc2ccc(S(=O)(=O)N3CCOCC3)cn2)c1 | inconclusive: 50.1 µM [activator, single point] | 
55 | CN(C)c1nccc(N(Cc2ccccc2)Cc2ccccc2)c1C#N | inconclusive: 5.01 µM [activator, full curve, poor fit] | 
56 | Cc1ccc(NC(=O)Nc2ccc3nc(N4CCN(C)CC4)cc(C)c3c2)cc1C |  | inactive: 4.31%
57 | CCCOC(=O)c1ccc(Nc2nc3ccccc3nc2-n2nc(C)cc2C)cc1 |  | inactive: -35.9%
58 | COc1ccc(NC(=O)N(C)C[C@H]2Oc3c(NC(=O)c4nc5ccccc5s4)cccc3C(=O)N([C@@H](C)CO)C[C@H]2C)cc1 | active: 15.8 µM | 
59 | COCCn1c(=NC(=O)c2cc(-c3cccs3)nc3ccccc23)sc2cc(S(N)(=O)=O)ccc21 | inconclusive: 12.6 µM [activator, partial curve] | 
